# Data taken from the supplement of paper PMC12423691.
# The list shows a part of the results. Binding of human transcription factors and regulators to the viral nucleoprotein by AlphaScreen, crude cell-free proteins, amounts not normalised, one pass. Fold of the Venus control; higher = more signal. No active / inactive call. Single-pass screen; sequences are the whole Swiss-Prot entries looked up by name.
# B1: ERF, P50548 (protein)
# chain: MKTPADTGFAFPDWAYKPESSPGSRQIQLWHFILELLRKEEYQGVIAWQGDYGEFVIKDPDEVARLWGVRKCKPQMNYDKLSRALRYYYNKRILHKTKGKRFTYKFNFNKLVLVNYPFIDVGLAGGAVPQSAPPVPSGGSHFRFPPSTPSEVLSPTEDPRSPPACSSSSSSLFSAVVARRLGRGSVSDCSDGTSELEEPLGEDPRARPPGPPDLGAFRGPPLARLPHDPGVFRVYPRPRGGPEPLSPFPVSPLAGPGSLLPPQLSPALPMTPTHLAYTPSPTLSPMYPSGGGGPSGSGGGSHFSFSPEDMKRYLQAHTQSVYNYHLSPRAFLHYPGLVVPQPQRPDKCPLPPMAPETPPVPSSASSSSSSSSSPFKFKLQPPPLGRRQRAAGEKAVAGADKSGGSAGGLAEGAGALAPPPPPPQIKVEPISEGESEEVEVTDISDEDEEDGEVFKTPRAPPAPPKPEPGEAPGASQCMPLKLRFKRRWSEDCRLEGGGGPAGGFEDEGEDKKVRGEGPGEAGGPLTPRRVSSDLQHATAQLSLEHRDS
# B2: DLX2, Q07687 (protein)
# chain: MTGVFDSLVADMHSTQIAASSTYHQHQQPPSGGGAGPGGNSSSSSSLHKPQESPTLPVSTATDSSYYTNQQHPAGGGGGGGSPYAHMGSYQYQASGLNNVPYSAKSSYDLGYTAAYTSYAPYGTSSSPANNEPEKEDLEPEIRIVNGKPKKVRKPRTIYSSFQLAALQRRFQKTQYLALPERAELAASLGLTQTQVKIWFQNRRSKFKKMWKSGEIPSEQHPGASASPPCASPPVSAPASWDFGVPQRMAGGGGPGSGGSGAGSSGSSPSSAASAFLGNYPWYHQTSGSASHLQATAPLLHPTQTPQPHHHHHHHGGGGAPVSAGTIF
# B3: CBFB, Q13951 (protein)
# chain: MPRVVPDQRSKFENEEFFRKLSRECEIKYTGFRDRPHEERQARFQNACRDGRSEIAFVATGTNLSLQFFPASWQGEQRQTPSREYVDLEREAGKVYLKAPMILNGVCVIWKGWIDLQRLDGMGCLEFDEERAQQEDALAQQAFEEARRRTREFEDRDRSHREEMEVRVSQLLAVTGKKTTRP
# B4: FOSB, P53539 (protein)
# chain: MFQAFPGDYDSGSRCSSSPSAESQYLSSVDSFGSPPTAAASQECAGLGEMPGSFVPTVTAITTSQDLQWLVQPTLISSMAQSQGQPLASQPPVVDPYDMPGTSYSTPGMSGYSSGGASGSGGPSTSGTTSGPGPARPARARPRRPREETLTPEEEEKRRVRRERNKLAAAKCRNRRRELTDRLQAETDQLEEEKAELESEIAELQKEKERLEFVLVAHKPGCKIPYEEGPGPGPLAEVRDLPGSAPAKEDGFSWLLPPPPPPPLPFQTSQDAPPNLTASLFTHSEVQVLGDPFPVVNPSYTSSFVLTCPEVSAFAGAQRTSGSDQPSDPLNSPSLLAL
# B5: JDP2, Q8WYK2 (protein)
# chain: MMPGQIPDPSVTTGSLPGLGPLTGLPSSALTVEELKYADIRNLGAMIAPLHFLEVKLGKRPQPVKSELDEEEERRKRRREKNKVAAARCRNKKKERTEFLQRESERLELMNAELKTQIEELKQERQQLILMLNRHRPTCIVRTDSVKTPESEGNPLLEQLEKK
# B6: STAT6, P42226 (protein)
# chain: MSLWGLVSKMPPEKVQRLYVDFPQHLRHLLGDWLESQPWEFLVGSDAFCCNLASALLSDTVQHLQASVGEQGEGSTILQHISTLESIYQRDPLKLVATFRQILQGEKKAVMEQFRHLPMPFHWKQEELKFKTGLRRLQHRVGEIHLLREALQKGAEAGQVSLHSLIETPANGTGPSEALAMLLQETTGELEAAKALVLKRIQIWKRQQQLAGNGAPFEESLAPLQERCESLVDIYSQLQQEVGAAGGELEPKTRASLTGRLDEVLRTLVTSCFLVEKQPPQVLKTQTKFQAGVRFLLGLRFLGAPAKPPLVRADMVTEKQARELSVPQGPGAGAESTGEIINNTVPLENSIPGNCCSALFKNLLLKKIKRCERKGTESVTEEKCAVLFSASFTLGPGKLPIQLQALSLPLVVIVHGNQDNNAKATILWDNAFSEMDRVPFVVAERVPWEKMCETLNLKFMAEVGTNRGLLPEHFLFLAQKIFNDNSLSMEAFQHRSVSWSQFNKEILLGRGFTFWQWFDGVLDLTKRCLRSYWSDRLIIGFISKQYVTSLLLNEPDGTFLLRFSDSEIGGITIAHVIRGQDGSPQIENIQPFSAKDLSIRSLGDRIRDLAQLKNLYPKKPKDEAFRSHYKPEQMGKDGRGYVPATIKMTVERDQPLPTPELQMPTMVPSYDLGMAPDSSMSMQLGPDMVPQVYPPHSHSIPPYQGLSPEESVNVLSAFQEPHLQMPPSLGQMSLPFDQPHPQGLLPCQPQEHAVSSPDPLLCSDVTMVEDSCLSQPVTAFPQGTWIGEDIFPPLLPPTEQDLTKLLLEGQGESGGGSLGAQPLLQPSHYGQSGISMSHMDLRANPSW
# B7: ELK1, P19419 (protein)
# chain: MDPSVTLWQFLLQLLREQGNGHIISWTSRDGGEFKLVDAEEVARLWGLRKNKTNMNYDKLSRALRYYYDKNIIRKVSGQKFVYKFVSYPEVAGCSTEDCPPQPEVSVTSTMPNVAPAAIHAAPGDTVSGKPGTPKGAGMAGPGGLARSSRNEYMRSGLYSTFTIQSLQPQPPPHPRPAVVLPSAAPAGAAAPPSGSRSTSPSPLEACLEAEEAGLPLQVILTPPEAPNLKSEELNVEPGLGRALPPEVKVEGPKEELEVAGERGFVPETTKAEPEVPPQEGVPARLPAVVMDTAGQAGGHAASSPEISQPQKGRKPRDLELPLSPSLLGGPGPERTPGSGSGSGLQAPGPALTPSLLPTHTLTPVLLTPSSLPPSIHFWSTLSPIAPRSPAKLSFQFPSSGSAQVHIPSISVDGLSTPVVLSPGPQKP
# B8: PRKD2, Q9BZL6 (protein)
# chain: MATAPSYPAGLPGSPGPGSPPPPGGLELQSPPPLLPQIPAPGSGVSFHIQIGLTREFVLLPAASELAHVKQLACSIVDQKFPECGFYGLYDKILLFKHDPTSANLLQLVRSSGDIQEGDLVEVVLSASATFEDFQIRPHALTVHSYRAPAFCDHCGEMLFGLVRQGLKCDGCGLNYHKRCAFSIPNNCSGARKRRLSSTSLASGHSVRLGTSESLPCTAEELSRSTTELLPRRPPSSSSSSSASSYTGRPIELDKMLLSKVKVPHTFLIHSYTRPTVCQACKKLLKGLFRQGLQCKDCKFNCHKRCATRVPNDCLGEALINGDVPMEEATDFSEADKSALMDESEDSGVIPGSHSENALHASEEEEGEGGKAQSSLGYIPLMRVVQSVRHTTRKSSTTLREGWVVHYSNKDTLRKRHYWRLDCKCITLFQNNTTNRYYKEIPLSEILTVESAQNFSLVPPGTNPHCFEIVTANATYFVGEMPGGTPGGPSGQGAEAARGWETAIRQALMPVILQDAPSAPGHAPHRQASLSISVSNSQIQENVDIATVYQIFPDEVLGSGQFGVVYGGKHRKTGRDVAVKVIDKLRFPTKQESQLRNEVAILQSLRHPGIVNLECMFETPEKVFVVMEKLHGDMLEMILSSEKGRLPERLTKFLITQILVALRHLHFKNIVHCDLKPENVLLASADPFPQVKLCDFGFARIIGEKSFRRSVVGTPAYLAPEVLLNQGYNRSLDMWSVGVIMYVSLSGTFPFNEDEDINDQIQNAAFMYPASPWSHISAGAIDLINNLLQVKMRKRYSVDKSLSHPWLQEYQTWLDLRELEGKMGERYITHESDDARWEQFAAEHPLPGSGLPTDRDLGGACPPQDHDMQGLAERISVL
# Target: nucleoprotein N of Crimean-Congo hemorrhagic fever virus
# Test: AlphaScreen luminescence signal relative to Venus negative control (fold); higher = stronger binding to CCHFV N
# Method: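 AlphaScreen binding of cell-free made, FLAG-GST-tagged human transcription factors and regulators (crude translation products) to biotinylated N protein; signal as fold of the FLAG-GST-Venus control. One pass.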
row,Binder,AlphaScreen luminescence signal
1,B1,2.47
2,B2,3.58
3,B3,1.95
4,B4,1.3
5,B5,2.23
6,B6,2.33
7,B7,2.47
8,B8,1.16
